Test results as given in patent US20040205843A1 (NORTH CAROLINA STATE UNIVERSITY, published 2004).

Target: T1, TGMV AL1, wild type, full length, untagged (tomato golden mosaic virus (TGMV), UniProt P03567 1-352)
T1 construct: also called Rep; authentic AL1
T1 sequence: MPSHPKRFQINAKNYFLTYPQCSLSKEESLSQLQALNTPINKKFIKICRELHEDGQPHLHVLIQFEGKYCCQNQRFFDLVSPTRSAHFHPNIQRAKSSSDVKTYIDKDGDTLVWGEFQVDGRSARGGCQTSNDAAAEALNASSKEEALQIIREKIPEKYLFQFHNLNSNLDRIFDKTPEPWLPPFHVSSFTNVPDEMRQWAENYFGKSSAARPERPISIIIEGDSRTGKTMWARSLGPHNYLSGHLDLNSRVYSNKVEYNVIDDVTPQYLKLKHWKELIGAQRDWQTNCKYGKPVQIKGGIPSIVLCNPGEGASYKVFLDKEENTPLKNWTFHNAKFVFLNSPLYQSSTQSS
Test: GST co-purification on glutathione resin from insect cells, immunoblot

B1: GST alone (other)
chain: not shown
**Q.** Does B1 bind?
**A.** Result: no binding
